The values below come from PubChem BioAssay AID1745853 (National Center for Advancing Translational Sciences (NCATS), 2022).

“And” between values parts separate entries of the source, which are not always exact repeats. Equal entries are not always repeated. The list shows a part of the results. The main result of the screen is listed elsewhere. These columns were measured beside it and carry no call.

What all share (assay): Primary Screen for Target Class Profiling of Small Molecule Inhibitors of Methyltransferases
The target of assay [1] is Glycine N-methyltransferase (Homo sapiens) (UniProt Q14749). The following applies: purified enzyme, MTase-Glo SAH luminescence; measured here: GNMT inhibition; at 40 µM; stronger effect = lower value. Put shortly:
(§1)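 Each enzyme was reacted with SAM and its substrate, with compounds tested once at 40 uM; SAH formed was read by MTase-Glo luminescence.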

Assay [2] deals with Guanidinoacetate N-methyltransferase (Homo sapiens) (UniProt Q14353). The settings on record: purified enzyme, MTase-Glo SAH luminescence; measured here: GAMT inhibition; at 40 µM; stronger effect = lower value. The method, boiled down: as §1
The target in assay [3] is Histamine N-methyltransferase (Homo sapiens) (UniProt P50135). The following applies: purified enzyme, MTase-Glo SAH luminescence; measured here: HNMT inhibition; at 40 µM; stronger effect = lower value. The method, boiled down: as §1
The target of assay [4] is Nicotinamide N-methyltransferase (Homo sapiens) (UniProt P40261). The settings on record: purified enzyme, MTase-Glo SAH luminescence; measured here: NNMT inhibition; at 40 µM; stronger effect = lower value. The method, boiled down:
as §1

In assay [5] the target is Phenylethanolamine N-methyltransferase (Homo sapiens) (UniProt P11086). The settings on record: purified enzyme, MTase-Glo SAH luminescence; measured here: PNMT inhibition; at 40 µM; stronger effect = lower value. Put shortly: as §1
% is set by controls: 0 for no effect and ±100 for the full control effect.

`Cc1cccc(C(=O)NCN2CCN(c3ccccc3C#N)CC2)c1`: the activity change, negative = inhibition in assay [1] was 5.91%; in assay [2], 12.6%; in assay [3], 12.8%; in assay [4] it was -3.49%; in assay [5], 0.928%.

`COc1ccccc1CNC(=O)C1(C)Cn2c(cc3ccccc32)C(=O)N1Cc1ccccc1F` (stereo not given): the activity change, negative = inhibition in assay [1] worked out at 5.82%; in assay [2] it was 0%; in assay [3], 9.48%; in assay [4], 12%; in assay [5], 3.04%.

On to `CCOc1ccccc1NC(=O)c1ncn2c1C(=O)N(C1CC1)C(C)(C(=O)NCc1ccc(OC)cc1)C2` (stereo not given), for which the activity change, negative = inhibition in assay [1] was -2.79%; in assay [2], 0%; in assay [3] it was 1.12%; in assay [4] it was 0.011%; in assay [5], 2.15%.

For `NC1(C(=O)O)CCc2cc(C(=O)O)ccc21` (stereo not given), the activity change, negative = inhibition in assay [1] is -21%; in assay [2], 10.3%; in assay [3], 2.73%; in assay [4], -1.51%; in assay [5], 0.406%.

With `NC(CO)C(=O)NNCc1ccc(O)c(O)c1O` (stereo not given), the activity change, negative = inhibition in assay [1] was -31.4%; in assay [2] it was -2.19%; in assay [3] it was -3.67%; in assay [4] it was -13.6%; in assay [5] it was -0.862%.

As for `COc1ccccc1CNc1nc2c(-c3cccc(C)c3)nnn2c2ccccc12`, the activity change, negative = inhibition in assay [1] was -3.21%; in assay [2] it was 0.192%; in assay [3] it was 2.97%; in assay [4] it was -2.18%; in assay [5] it was -1.73%.

Consider `Cc1ccccc1C(=O)N1CCCN(c2ccc3nnc(-c4ccccc4)n3n2)CC1`, for which the activity change, negative = inhibition in assay [1] is -10%; in assay [2], -6.66%; in assay [3], -13%; in assay [4], -16.8%; in assay [5], -0.895%.

In the case of `c1ccc(-c2nc(C3CCOCC3)no2)c(OC2CCN(C3CCCC3)C2)c1` (stereo not given), the activity change, negative = inhibition in assay [1] was -7.03%; in assay [2], -1.72%; in assay [3] it was -20.1%; in assay [4] it was -38%; in assay [5], -3.91%.

For the compound `Oc1ccc(CNc2ccccc2F)c2cccnc12`, the activity change, negative = inhibition was -67.6% and 2.65% in assay [1]; 0.475% in assay [2]; -14.9% and 0.816% in assay [3]; -5.34% and -20.3% in assay [4]; -111% and -8.26% in assay [5].

Consider `O=C(NCc1ccc(F)cc1)C(=O)c1c[nH]c2ccccc12`, for which the activity change, negative = inhibition in assay [1] was -2.81%; in assay [2], -9.05%; in assay [3], -4.13%; in assay [4], -17.8%; in assay [5], -9.67%.

For the compound `CC(C)CC(=O)N1CCN(c2nnc3ccc(C(F)(F)F)cn23)CC1`, the activity change, negative = inhibition in assay [1] was -3.11%; in assay [2], 0.097%; in assay [3], 0.91%; in assay [4] it was -4.41%; in assay [5] it was -14.2%.

As to `COc1ccc(Oc2c(Cl)cnn(-c3cc(C)cc(C)c3)c2=O)cc1`, the activity change, negative = inhibition in assay [1] is -8.28%; in assay [2], 1.68%; in assay [3] it was 1.56%; in assay [4] it was -23.2%; in assay [5] it was -14.1%.

Take `CC1(C)COC(=O)[C@@H]1O[C@@H]1O[C@H](CO)[C@@H](O)[C@H](O)[C@H]1O`: the activity change, negative = inhibition in assay [1] is 1.87%; in assay [2], -2.05%; in assay [3] it was 7.83%; in assay [4], -17.7%; in assay [5], 2.4%.

On to `CCC(C(=O)NCc1cccc(OC)c1)n1ccc2cc(S(=O)(=O)N3CCCCC3)ccc21` (stereo not given), for which the activity change, negative = inhibition came to 8.27% in assay [1]; 1.21% in assay [2]; 7.06% in assay [3]; 5.16% in assay [4]; 3.12% in assay [5].

`COc1ccc(OC)c(S(=O)(=O)N2CCC(n3c(C)cnc3-c3ccncc3)CC2)c1`: the activity change, negative = inhibition in assay [1] was 2.22%; in assay [2] it was 0%; in assay [3], 8.19%; in assay [4], -1.23%; in assay [5] it was 2.61%.

Take `CN(CCN1C(=O)c2cc3sccc3n2CC1(C)C(=O)NC1CCCCCC1)C1CCCCC1` (stereo not given): the activity change, negative = inhibition in assay [1] was 2.22%; in assay [2], 0.113%; in assay [3], 3.99%; in assay [4] it was 9.44%; in assay [5] it was 1.54%.

For the compound `COc1cc(CN2CCC(CO)(CN3CCCC3)CC2)ccc1F`, the activity change, negative = inhibition is -0.647% in assay [1]; -2.35% in assay [2]; -16.1% in assay [3]; -1.71% in assay [4]; -5.78% in assay [5].

For `COc1ccc(-c2n[nH]n3c2nc(=O)c2ccc(C(=O)NCc4ccc(F)cc4)cc23)cc1`, the activity change, negative = inhibition in assay [1] was -2.16%; in assay [2] it was 3.56%; in assay [3], 4.3%; in assay [4], 1.69%; in assay [5] it was 0.38%.

Turning to `Nc1nc(Nc2ccc3c(c2)CCC(N2CCCC2)CC3)nn1-c1cc2c(nn1)-c1ccccc1CCC2` (stereo not given), the activity change, negative = inhibition in assay [1] was -4.87%; in assay [3] it was -59.3%.

Consider `CCCn1c(=O)c2cc(Cl)ccc2n2c(SCc3ccc(C)cc3)nnc12`, for which the activity change, negative = inhibition in assay [1] was -6.97%; in assay [2] it was 0%; in assay [3] it was 2.65%; in assay [4], -12.3%; in assay [5], 1.53%.

`CC(C)c1cccc(N2C(=O)c3ccccc3CC2(C)C(=O)NCc2ccccc2)c1` (stereo not given): the activity change, negative = inhibition is 4.49% in assay [1]; 0% in assay [2]; 6.13% in assay [3]; -1.71% in assay [4]; 2.85% in assay [5].

Turning to `CC(C)=CCC[C@](C)(O[C@@H]1O[C@H](CO[C@@H]2O[C@H](CO)[C@@H](O)[C@H](O)[C@H]2O)[C@@H](O)[C@H](O)[C@H]1O)[C@H]1CC[C@]2(C)[C@@H]1[C@H](O)C[C@@H]1[C@@]3(C)CC[C@H](O[C@@H]4O[C@H](CO)[C@@H](O)[C@H](O)[C@H]4O[C@@H]4O[C@H](CO)[C@@H](O)[C@H](O)[C@H]4O)C(C)(C)[C@@H]3CC[C@]12C`, the activity change, negative = inhibition was 12.4% in assay [2], 1.88% in assay [4] and -6.3% in assay [5].

As to `CC/C=C\CC1C(=O)C=CC1(CCCCCCCC(=O)O)OC(C)=O` (stereo not given), the activity change, negative = inhibition in assay [1] is -2.25%; in assay [2] it was 6.49%; in assay [3], 5.75%; in assay [4], -12.4%; in assay [5] it was 4.57%.

Consider `C=CCc1ccccc1OCCN(C)Cc1ccccc1C(=O)O`, for which the activity change, negative = inhibition in assay [1] was -1.34%; in assay [2] it was -1.76%; in assay [3] it was 3.16%; in assay [4] it was -4.54%; in assay [5], -0.669%.

For the compound `CCOc1ccc(CCNS(=O)(=O)c2cn(C)cn2)cc1OCC`, the activity change, negative = inhibition in assay [1] was -1.9%; in assay [2], 0%; in assay [3] it was 4.18%; in assay [4] it was -1.65%; in assay [5], 1.49%.

Turning to `O=c1[nH]cnc2c1ncn2[C@H]1CC[C@@H](CO)O1`, the activity change, negative = inhibition in assay [1] is 1.26%; in assay [2] it was 2.28%; in assay [3], 10.1%; in assay [4], -13.3%; in assay [5], 3.73%.

In the case of `CNC(=O)c1cc2cc(-c3c(C)noc3C)nc(-c3cccc(OC)c3OC)c2o1`, the activity change, negative = inhibition in assay [1] was -8.79%; in assay [2], -9.19%; in assay [3] it was -6.85%; in assay [4], -21%; in assay [5], -10.3%.

With `CN1CCN(c2ccc(OC(F)(F)F)c(Nc3ncc4c(n3)-c3c(c(C(N)=O)nn3CCO)CC4)c2)CC1`, the activity change, negative = inhibition in assay [1] was -7.3%; in assay [2] it was -0.027%; in assay [3] it was -2.11%; in assay [4], -18.6%; in assay [5], 4.95%.

As to `O=C(NCCNC(=O)c1cccc(-c2ccsc2)c1)NC1CCCC1`, the activity change, negative = inhibition in assay [1] was -6.41%; in assay [2] it was -0.578%; in assay [3] it was -0.397%; in assay [4] it was -8.37%; in assay [5], -4.24%.

`COc1ccc(C)cc1NS(=O)(=O)c1ccc2[nH]c3c(c2c1)CCCC3`: the activity change, negative = inhibition in assay [1] is -2.37%; in assay [2], 0.489%; in assay [3] it was -3.91%; in assay [4] it was -12.9%; in assay [5] it was -2.88%.
